{
  "source": "PubChem BioAssay AID488969",
  "about": "(Vanderbilt High Throughput Screening Facility, 2010)",
  "note": "“And” between values parts separate entries of the source, which are not always exact repeats. Equal entries are not always repeated. The full ranking holds about 110,000 compounds; the median of “z-score” is about -0.1, and the highest 2% start at about 2. The list shows a part of the results. The source made the active and inactive calls.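 How the source made its calls: active means z-score in the third read window above 3 or below -3; inactive means the rest.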",
  "data": [
    {"target": "Metabotropic glutamate receptor 8 (Rattus norvegicus) (UniProt P70579)", "sequence (P70579 whole entry, looked up)": "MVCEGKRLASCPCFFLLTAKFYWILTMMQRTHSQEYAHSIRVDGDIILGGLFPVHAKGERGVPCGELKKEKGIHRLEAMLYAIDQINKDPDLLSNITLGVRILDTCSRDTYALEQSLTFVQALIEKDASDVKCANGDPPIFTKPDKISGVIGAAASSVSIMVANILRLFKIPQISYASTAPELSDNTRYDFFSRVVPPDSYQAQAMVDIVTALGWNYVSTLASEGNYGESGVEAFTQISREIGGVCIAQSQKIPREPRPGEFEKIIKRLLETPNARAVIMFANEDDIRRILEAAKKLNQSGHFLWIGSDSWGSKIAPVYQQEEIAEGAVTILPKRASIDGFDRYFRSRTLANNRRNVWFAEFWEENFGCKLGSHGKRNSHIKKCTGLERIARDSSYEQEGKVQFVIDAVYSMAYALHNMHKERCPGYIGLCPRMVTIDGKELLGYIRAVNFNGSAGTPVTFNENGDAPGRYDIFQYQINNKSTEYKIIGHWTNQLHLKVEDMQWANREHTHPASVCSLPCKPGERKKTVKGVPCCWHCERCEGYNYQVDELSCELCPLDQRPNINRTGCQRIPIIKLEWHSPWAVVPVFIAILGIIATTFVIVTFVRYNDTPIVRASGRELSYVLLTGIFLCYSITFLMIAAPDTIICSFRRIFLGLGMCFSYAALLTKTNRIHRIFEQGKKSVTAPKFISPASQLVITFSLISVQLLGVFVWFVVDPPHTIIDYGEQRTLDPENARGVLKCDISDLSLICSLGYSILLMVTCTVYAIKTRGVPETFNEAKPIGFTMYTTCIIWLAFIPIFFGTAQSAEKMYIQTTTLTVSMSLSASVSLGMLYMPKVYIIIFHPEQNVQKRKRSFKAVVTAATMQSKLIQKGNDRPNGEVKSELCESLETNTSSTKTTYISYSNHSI", "assay": "mGluR8 Gi/Go-coupled signaling modulation – cell-based, rat, thallium flux, HTS, primary screen (AID 488969)", "details": "HEK293 rat mGluR8, GIRK (G protein-gated inwardly rectifying potassium channel) thallium flux, FluoZin2; at 10 µM; stronger effect = higher value; submaximal glutamate (EC20) added with thallium", "values": [
      {"smiles": "CCCOc1ccc([N+](=O)[O-])cc1C1NC(=S)NC(c2ccccc2)=C1C(=O)OCC", "note": "(stereo not drawn)", "z-score": -0.0247},
      {"smiles": "FCCCOc1ccc(/C=N/OCc2ccc(Cl)cc2)cc1", "z-score": -0.198},
      {"smiles": "CCOc1ccccc1NC(=O)CSc1nnnn1-c1ccc(C(=O)OC)cc1", "z-score": 0.0927},
      {"smiles": "O=C(NCc1ccc2c(c1)OCO2)c1ccccn1", "z-score": 0.13},
      {"smiles": "Cc1cc(C)c(NC(=O)CCCC(=O)O)c(Cl)c1", "z-score": 0.266},
      {"smiles": "Cc1cccc2sc(N(CCCN(C)C)C(=O)c3nc4ccccc4s3)nc12", "z-score": -0.466},
      {"smiles": "CCn1c(C)c(C(C)=O)c(SC)nc1=S", "z-score": 0.134},
      {"smiles": "CN1CCOCCOCCN(C)C1=O", "z-score": 0.0463},
      {"smiles": "COC(CNC(=O)CCc1c(C)nc2c(-c3ccc(F)cc3)c(C)nn2c1C)OC", "z-score": -0.287},
      {"smiles": "COC(=O)c1sccc1-n1cccc1C(=O)C(=O)N1CC(C)OC(C)C1", "note": "(stereo not drawn)", "z-score": 0.245},
      {"smiles": "Cc1ccc(NCC(=O)N/N=C/c2cc3ccccc3nc2Cl)cc1", "z-score": -0.256},
      {"smiles": "CC(C)NC1CS(=O)(=O)CC1O", "note": "(stereo not drawn)", "z-score": -0.283},
      {"smiles": "CC(NC(=O)CCC(=O)N1CCN(S(=O)(=O)c2ccc(Cl)cc2)CC1)c1ccccc1", "note": "(stereo not drawn)", "z-score": -0.321},
      {"smiles": "Clc1ccccc1Cn1nc(-c2ccccc2)nc1-c1ccccc1", "z-score": -0.0153},
      {"smiles": "CCOc1ccc(N(CC(=O)N2CCN(c3ccccc3)CC2)S(=O)(=O)c2c(C)noc2C)cc1", "z-score": -0.438},
      {"smiles": "O=C(NN1C(=O)C2C3c4ccccc4C(c4ccccc43)C2C1=O)c1ccc(Cl)cc1", "note": "(stereo not drawn)", "z-score": -0.105},
      {"smiles": "Cc1ccc(-n2c(SCC(=O)Nc3ccc4cn[nH]c4c3)nnc2-c2ccco2)cc1", "z-score": -0.986},
      {"smiles": "O=C1C2CCCCN2C(=O)N1CCCCN1CCN(c2ccc([N+](=O)[O-])cc2)CC1", "note": "(stereo not drawn)", "z-score": -0.194},
      {"smiles": "Cc1cccc(N2C(=O)CCC2=O)c1", "z-score": 0.199},
      {"smiles": "COC(=O)c1sc(NC(=O)CCCn2nc([N+](=O)[O-])cc2C)c(C(=O)OC)c1C", "z-score": -0.0586},
      {"smiles": "CCc1nnc(NC(=O)CSc2nnc3scc(-c4ccc(C)cc4)n23)s1", "z-score": 0.12},
      {"smiles": "Fc1cccc(Cl)c1-c1nnc2ccc(N3CCOCC3)nn12", "z-score": -0.393},
      {"smiles": "COC(=O)c1ccccc1NC(=O)CSc1nnnn1C", "z-score": -0.337},
      {"smiles": "CNC(=O)c1ccc(-c2ccccc2)s1", "z-score": -0.0648},
      {"smiles": "COCCN(Cc1cc2cc3c(cc2nc1Cl)OCO3)C(=O)Nc1ccc(F)cc1", "z-score": -0.233},
      {"smiles": "CCOC(=O)c1c(C)cccc1OCC(N)=O", "z-score": -0.0277},
      {"smiles": "CC(C)NC(=O)c1sc2nc3c(c(-c4cccs4)c2c1N)CN(C)CC3", "z-score": -0.212},
      {"smiles": "Cc1ccc(S(=O)(=O)N2CCN(C(=O)CN3CCOCC3)C2)cc1", "z-score": -0.149},
      {"smiles": "CCCCSc1nnc(-c2ccc(C)cc2)c2ccccc12", "z-score": -0.233},
      {"smiles": "O=C(CSc1nnc(-c2cccnc2)n1-c1ccccc1)N1CCN(c2ccc(F)cc2)CC1", "z-score": -0.861},
      {"smiles": "CCOc1ccc(NC(=O)CSc2nnc(C3CC3)n2N)cc1", "z-score": 0.0098},
      {"smiles": "COC(=O)c1ccc(CNC(=O)COC(=O)CC23CC4CC(CC(Br)(C4)C2)C3)cc1", "z-score": -0.0945},
      {"smiles": "COc1ccc(Cl)cc1NC(=O)C(C)OC(=O)c1ccc(NS(=O)(=O)c2ccc3[nH]c(=O)[nH]c3c2)cc1", "note": "(stereo not drawn)", "z-score": -0.699},
      {"smiles": "Cc1ccc(S(=O)(=O)N2CCN(C(=O)C3COc4ccccc4O3)CC2)cc1C", "note": "(stereo not drawn)", "z-score": -0.222},
      {"smiles": "CC(=O)OCCCNc1cc(SCc2ccco2)c2nonc2c1[N+](=O)[O-]", "z-score": -0.639},
      {"smiles": "CCCNC(=O)Cn1c(=O)/c(=C\\c2ccc(-c3ccc([N+](=O)[O-])cc3)o2)s/c1=C\\C(=O)C(C)(C)C", "z-score": -0.329},
      {"smiles": "Cc1cc(NC(=O)COC(=O)c2cc(S(=O)(=O)N3CCOCC3)ccc2N2CCCCC2)no1", "z-score": -0.153},
      {"smiles": "OCCN(C=NC1=NN(c2cccc(C(F)(F)F)c2)CC1)CCO", "z-score": -1.59},
      {"smiles": "COC(=O)c1nn(-c2ccc3c(c2)OCO3)cc1O", "z-score": -0.00183},
      {"smiles": "O=C(Cn1c(=O)n(-c2cccc(Cl)c2)c(=O)n1CC(=O)N1CCCCC1)N1CCCCC1", "z-score": -0.127},
      {"smiles": "CCc1ccc2nc(NC(=O)c3ccc4c(=O)[nH]c(CN5CCOCC5)nc4c3)sc2c1", "z-score": -0.023},
      {"smiles": "COCCn1c(C)cc(C(=O)COC(=O)c2c(C)nn(Cc3ccccc3)c2C)c1C", "z-score": -0.149},
      {"smiles": "Cc1ccc(N=Nc2ccc(O)c(/C=N\\NC(=O)c3ccc(N)cc3)c2)cc1C", "z-score": 0.032},
      {"smiles": "O=C1CCC([N+](=O)[O-])C(c2cc3c(cc2Br)OCO3)N1", "note": "(stereo not drawn)", "z-score": -0.0845},
      {"smiles": "COc1ccc2c(C=Nc3c(C)n(C)n(-c4ccccc4)c3=O)c(O)n(Cc3ccco3)c(=O)c2c1", "z-score": "-0.732 and -0.296"},
      {"smiles": "Cc1cc(N2CCN(c3ccccc3)CC2)nc(N)n1", "z-score": 0.126},
      {"smiles": "Cc1cccc(Nc2ncccc2C(=O)NCc2cccs2)c1C", "z-score": -0.438},
      {"smiles": "Nc1n[nH]c(N)c1N=Nc1ccc(Cl)cc1", "z-score": 0.429},
      {"smiles": "Cc1ccc(C(=O)Nc2cccc(N(C)S(C)(=O)=O)c2)cc1S(=O)(=O)Nc1ccccc1", "z-score": -0.322},
      {"smiles": "C=CCOc1nc(N(C)C)nc(N(C)C)n1", "z-score": -0.0718},
      {"smiles": "CCC(C)N1CC(C(=O)O)CC1=O", "note": "(stereo not drawn)", "z-score": -0.0459},
      {"smiles": "COc1ccccc1N1CCN(C(=O)C(=O)N/N=C/c2cccc(O)c2)CC1", "z-score": -0.082},
      {"smiles": "Cc1ccc2nc(NC(=S)NC(=O)c3cccs3)sc2c1", "z-score": "active: 4.64"},
      {"smiles": "COc1cccc(C(=O)NC(=S)Nc2cccnc2)c1", "z-score": 0.138},
      {"smiles": "COc1ccc(/C=N/NC(=O)c2[nH]c(C)c(C(=O)N/N=C/c3ccc(OC)cc3)c2C)cc1", "z-score": -0.895},
      {"smiles": "O=C(CCn1cccc1)Nc1nccs1", "z-score": 0.442},
      {"smiles": "N#CC1=C(SCC(=O)NC23CC4CC(CC(C4)C2)C3)NC(=O)C(C#N)C12CCCCC2", "note": "(stereo not drawn)", "z-score": 0.305},
      {"smiles": "COc1ccc(C2NC(=S)N3C(c4ccc(OC)cc4)NC(=S)N23)cc1", "note": "(stereo not drawn)", "z-score": -0.119},
      {"smiles": "CCC(=O)N1CCN(c2ccc(Cl)cc2NC(=O)c2ccc3c(c2)OCCO3)CC1", "z-score": -1.29},
      {"smiles": "c1ccc(CNc2ncnc3c2cnn3Cc2ccccc2)cc1", "z-score": -2.03},
      {"smiles": "O=S(=O)(N/N=C\\c1cccnc1)c1ccccc1", "z-score": 0.554},
      {"smiles": "O=c1c(Cl)c(N2CCN(c3ccc(F)cc3)CC2)cnn1C12CC3CC(CC(C3)C1)C2", "z-score": -0.336},
      {"smiles": "O=C(Nc1cc(C(F)(F)F)ccc1N1CCOCC1)c1ccc(F)cc1", "z-score": 0.436},
      {"smiles": "COC(=O)CCCCCCCCCC[N+]1(C)CCCCC1", "z-score": -0.454},
      {"smiles": "O=C(COc1ccc2ccccc2c1)N1CCN(C(=O)c2cccs2)CC1", "z-score": -0.284},
      {"smiles": "CCOC(=O)c1c(C)[nH]c(C(=O)OCC(=O)Nc2ccc(OC)c(Cl)c2)c1C", "z-score": 0.0115},
      {"smiles": "COC(=O)c1ccc(NC(=O)CN(c2ccc(C)cc2)S(=O)(=O)c2c(C)nn(C)c2C)cc1", "z-score": 1.19},
      {"smiles": "Nc1ccc(Sc2nnnn2-c2ccccc2)c(Cl)c1", "z-score": 0.409}
    ]}
  ]
}
